# This is one part of the list. These are enrichments in a pooled selection; single values are uncertain.
# T1: MSN_FERM_1_P26038_1_322
# T1 chain: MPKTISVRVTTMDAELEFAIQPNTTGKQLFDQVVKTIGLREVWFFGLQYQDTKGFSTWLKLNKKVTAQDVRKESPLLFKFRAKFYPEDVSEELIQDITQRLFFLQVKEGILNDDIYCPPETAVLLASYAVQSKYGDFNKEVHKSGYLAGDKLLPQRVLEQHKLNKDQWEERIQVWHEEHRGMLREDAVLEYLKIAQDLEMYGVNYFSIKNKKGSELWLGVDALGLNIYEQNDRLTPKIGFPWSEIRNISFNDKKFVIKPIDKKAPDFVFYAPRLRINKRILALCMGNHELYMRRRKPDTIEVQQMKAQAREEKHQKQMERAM
# T2: RDX_FERM_1_P35241_5_295
# T2 chain: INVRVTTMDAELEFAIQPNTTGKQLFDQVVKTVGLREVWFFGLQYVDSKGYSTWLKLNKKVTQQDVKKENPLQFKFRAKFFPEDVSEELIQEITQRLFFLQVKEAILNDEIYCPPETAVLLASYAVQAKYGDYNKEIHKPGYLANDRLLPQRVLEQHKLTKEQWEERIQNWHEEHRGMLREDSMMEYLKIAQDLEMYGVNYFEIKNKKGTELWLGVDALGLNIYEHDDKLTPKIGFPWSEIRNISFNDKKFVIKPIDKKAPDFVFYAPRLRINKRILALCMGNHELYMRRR
# Biological target: T1, MSN_FERM_1_P26038_1_322
# Assay: mean normalised NGS count of phage-displayed peptide after selection on bait (% of reads); baits are purified protein domains named by gene / domain / UniProt id / residues; peptides come from disordered regions of human proteins; higher = stronger enrichment / binding
# Settings: replicate selections in which the peptide was seen: 2
row,Binder,mean normalised NGS count
1,YQVADIPQPQGSIINP [IRF6 111-126 wt],0.0446
2,YWFPPPSQYNVSEIPL [ARSB 449-464 mut P15848.S464L],0.00581
3,YYLVHTGEKPHEAQVA [PRDM1 621-636 mut O75626.H621Y],0.368
4,WYPTNMEELVTVDEVG [RBM20 900-915 wt],0.235
5,SAVLSWDVPENDGGAP [TTN 27220-27235 wt],0.00202
6,YWFPPPSQYNVSEIPS [ARSB 449-464 wt],0.0304
7,DFSPYLISDNSEQPMG [BRCA1 1123-1138 mut P38398.L1133S],0.00468
8,YEVSSSLGYTSTRDVL [DEPDC5 543-558 wt],0.00475
9,KYHLSEKQDTYLSNSS [BRCA2 1729-1744 mut P51587.N1730Y],0.734
10,MYDIISSTSKDSTKLT [NIPBL 344-359 mut Q6KC79.P351T],0.0199
11,QLDISEPYKVYRIVPE [IRF8 100-115 wt],0.068

# Biological target: T2, RDX_FERM_1_P35241_5_295
# Assay: as above
# Settings: replicate selections in which the peptide was seen: 3
row,Binder,mean normalised NGS count
1,YQVADIPQPQGSIINP [IRF6 111-126 wt],0.23
2,YWFPPPSQYNVSEIPL [ARSB 449-464 mut P15848.S464L],1.91
3,YWFPPPSQYNVSEIPS [ARSB 449-464 wt],0.317
4,KYHLSEKQDTYLSNSS [BRCA2 1729-1744 mut P51587.N1730Y],0.0567
5,MYDIISSTSKDSTKLT [NIPBL 344-359 mut Q6KC79.P351T],0.0145

# Same assay, conditions: replicate selections in which the peptide was seen: 4
row,Binder,mean normalised NGS count
1,YYLVHTGEKPHEAQVA [PRDM1 621-636 mut O75626.H621Y],0.362

# Biological target: T1, MSN_FERM_1_P26038_1_322
# Assay: as above
# Settings: replicate selections in which the peptide was seen: 3
row,Binder,mean normalised NGS count
1,ESVLQNTSPEGIPTIQ [SYNE1 3345-3360 wt],0.0118
2,TYALYLPETLPEDGGE [NEXN 636-651 mut Q0ZGT2.F645L],0.00553
3,SYEFVSPSPPADVSER [BARD1 179-194 wt],18.9
4,YTYNVSNLDVRQLSAP [KMT2D 4894-4909 wt],0.425
5,YFVSHDQMMQDISNNE [CASK 789-804 wt],0.0424

# Biological target: MK08_Pkinase__P45983_1_363
# Assay: as above
# Settings: replicate selections in which the peptide was seen: 6
# Sequence of MK08_Pkinase__P45983_1_363 (chain, as listed by the source): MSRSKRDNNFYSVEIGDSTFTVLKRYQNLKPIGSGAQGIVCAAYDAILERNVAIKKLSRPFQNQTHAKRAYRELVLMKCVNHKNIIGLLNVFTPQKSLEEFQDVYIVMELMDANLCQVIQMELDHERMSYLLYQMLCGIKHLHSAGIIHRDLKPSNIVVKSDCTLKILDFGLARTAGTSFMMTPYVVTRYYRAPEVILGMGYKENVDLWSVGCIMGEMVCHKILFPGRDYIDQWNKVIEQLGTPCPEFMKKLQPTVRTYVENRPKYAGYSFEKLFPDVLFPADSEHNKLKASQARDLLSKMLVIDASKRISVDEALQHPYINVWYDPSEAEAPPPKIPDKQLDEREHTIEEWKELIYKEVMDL
row,Binder,mean normalised NGS count
1,GGEEVGPLELEIKRLS [CCDC40 745-760 wt],49.6

# Same assay, conditions: replicate selections in which the peptide was seen: 2
row,Binder,mean normalised NGS count
1,AYEPQLNRLKEKAQQL [SYNE1 3225-3240 wt],0.924
2,LVSKLDWLEASSGILE [RYR1 546-561 mut P21817.R552W],0.00818

# Same assay, conditions: replicate selections in which the peptide was seen: 3
row,Binder,mean normalised NGS count
1,ELSQKKQNLWLELRNY [BBS2 340-355 mut Q9BXC9.L349W],0.141
2,SILAELEELNQTEQTT [CBS 285-300 mut P35520.P290L],0.269

# Biological target: MDM2_p53-binding-domain__Q00987_17_125
# Assay: as above
# Settings: replicate selections in which the peptide was seen: 2
row,Binder,mean normalised NGS count
1,AQAAAVAGNIPGPGSV [SMAD4 460-475 wt],1.74

# Biological target: T2, RDX_FERM_1_P35241_5_295
# Assay: as above
# Settings: replicate selections in which the peptide was seen: 5
row,Binder,mean normalised NGS count
1,SYEFVSPSPPADVSER [BARD1 179-194 wt],9.21

# Biological target: MAP1LC3B_ATG8__Q9GZQ8_2_119
# Assay: as above
# Settings: replicate selections in which the peptide was seen: 6
row,Binder,mean normalised NGS count
1,ATDFEVLSTKFEMQDL [ZNF469 3015-3030 wt],0.97
2,NTHLLPLRAMDFEVLS [ZNF469 3007-3022 mut Q96JG9.T3016M],0.0594
3,NTHLLPLHATDFEVLS [ZNF469 3007-3022 mut Q96JG9.R3014H],0.751

# Biological target: MDM2_p53-binding-domain__Q00987_17_125
# Assay: as above
# Settings: replicate selections in which the peptide was seen: 5
row,Binder,mean normalised NGS count
1,DMTKQKEFFDVWPVLM [PDE6A 281-296 wt],0.0284

# Biological target: T2, RDX_FERM_1_P35241_5_295
# Assay: as above
# Settings: replicate selections in which the peptide was seen: 2
row,Binder,mean normalised NGS count
1,YTYNVSNLDVRQLSAP [KMT2D 4894-4909 wt],0.0121

# Biological target: MDM2_p53-binding-domain__Q00987_17_125
# Assay: as above
# Settings: replicate selections in which the peptide was seen: 6
row,Binder,mean normalised NGS count
1,DMTKQKEFFDVWLVLM [PDE6A 281-296 mut P16499.P293L],17.4

# Source: the supplement of paper PMC11369174, “Proteome-scale characterisation of motif-based interactome rewiring by disease mutations” (Molecular Systems Biology, 2024)
